Data reported in PubChem BioAssay AID493208 (National Center for Advancing Translational Sciences (NCATS), 2011).
About 340 (0.77%) of roughly 44,000 compounds were called active. Inconclusive results (about 5%) are left out. Calls come from the whole dose curve; as a rule, active = well fitted inhibition curve with a large enough effect; inconclusive = small, poorly fitted or top-dose-only effect; inactive = flat fitted curve, though single readings scatter. The list shows a part of the results.

experiment: Acumen qHTS Assay for Inhibitors of the mTORC1 Signaling Pathway in MEF (Tsc2-/-, p53-/-) Cells: Sytravon; conditions: phospho-rpS6 immunofluorescence/PI, 24 h; series mostly up to 38.3 µM; activity change, negative = inhibition: at the top concentration; note: nearly all actives have a fitted effect of over 50% in size;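 for activity change, negative = inhibition: plate controls were DMSO for no effect and rapamycin for full effect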
How it was run: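 Plate MEFs (Tsc2-/-, p53-/-, empty vector) in DMEM/10% FBS; after 24 h add compound, incubate 24 h at 37 degree Celsius; fix in PFA/TX-100, block, stain phospho-rpS6 and 10 uM PI; scan at 488 nm; report % positive cells.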
Potency is the fitted concentration of half-maximal effect.

Activity change, negative = inhibition, inactive:
CCC(CC)C(=O)N1CCc2cc(OC)c(OC)cc2C1COc1ccc2c(C)cc(=O)oc2c1 (stereo unspecified) 0.715%
O=C(c1cc(S(=O)(=O)N2CCCC2)c[nH]1)N1CCN(c2cccc(Cl)c2)CC1 -15.7%
CCOc1ccc2nc(N(Cc3cccnc3)C(=O)c3ccco3)sc2c1 0.304%
CCCSc1ncc(Cl)c(C(=O)NCc2ccc(C)cc2)n1 -1.47%
COc1ccc(CNC(=O)CCS(=O)(=O)c2cc3c4c(c2)CCN4C(=O)CC3)cc1OC 2.66%
Cc1cc(Cl)ccc1NC(=O)CCS(=O)(=O)c1ccc2c(c1)CC(C)N2C(=O)C1CC1 (stereo unspecified) -0.859%
COc1ccc(C2C(C(=O)Nc3cccnc3)=C(C)Nc3nc(-c4ccc(OC)c(OC)c4)nn32)cc1 (stereo unspecified) -0.71%
O=C(Nc1cc(Cl)ccc1O)c1cc(-c2ccc3c(c2)OCO3)on1 -5.37%
Cc1c(C(=O)N2CCCC2)oc2c1-c1nn(CC(=O)NCc3ccccc3F)cc1CC2 -0.463%
CCc1nn2c(=O)c(S(=O)(=O)Nc3ccc(C)cc3C)c(C)nc2s1 -0.0809%
COc1ccc(-c2nc(CSCC(=O)NCCc3ccc(OC)c(OC)c3)c(C)o2)cc1 0.253%
Cc1sc(NC(=O)C2c3ccccc3Oc3ccccc32)c(C(=O)OC(C)C)c1C -5.21%
Cc1ccc(S(=O)(=O)c2nnn3c2nc(N(C)Cc2ccccc2)c2cc(Cl)ccc23)cc1C -9.53%
CC(C)NC(=O)C1=CC(c2ccc3c(c2)OCO3)=NS(=O)(=O)N1C 0.776%
COc1ccccc1CNC(=O)c1cc2cccc3c2n1CCS3 -0.505%
CC1CCN(c2nc3ccccc3nc2SCC(=O)Nc2ccccc2C(C)C)CC1 -9.21%
CC(=O)c1ccc(NC(=O)Cn2c(=O)nc(-c3ccccc3)c3ccccc32)cc1 5.48%
O=C(CS(=O)(=O)c1cccc2nsnc12)N1CCN(c2ccc(F)cc2)CC1 4.35%
CCOc1ccc(C(=O)c2cn(CC(=O)Nc3ccc(C)c(Cl)c3)c3ccc(OCC)cc3c2=O)cc1 -2.67%
CCCCC(=O)OCc1cc(=O)n2nc(C3CC3)sc2n1 -12.7%
O=C(NC1(C(F)(F)F)N=C(c2ccccc2)N(Cc2ccccc2)C1=O)c1ccc(F)cc1 (stereo unspecified) -14.4%
Cc1cc(-c2ccc(C)c(S(=O)(=O)Nc3ccc(C)c(N(C)C)c3)c2)on1 2.78%
CCOc1ccc(CCNC(=O)c2cc3n(n2)CCCN(Cc2ccc(C)cc2)C3=O)cc1OCC 0%
Cn1cnc(S(=O)(=O)N2CCC(C(=O)Nc3ccc(OC(F)(F)F)cc3)CC2)c1 0%
CCN(CC)c1cc(NC2CCCCC2)c2c3c(onc13)-c1ccccc1C2=O 0.307%

Potency, active:
CCCN1CCN(c2ncnc3sc(C(=O)Nc4ccc(OC(F)(F)F)cc4)c(C)c23)CC1 16.5 µM
